Data published in the supplement of paper PMC12217912.
The other results are listed elsewhere or left out. The full chains were built here from the parent and the listed change. Values near 0.05 are background.

B1: TEV protease; numbered along this chain (parent)
chain: MGESLFKGPRDYNPISSSICHLTNESDGHTTSLYGIGFGPFIITNKHLFRRNNGTLVVQSLHGVFKVKDTTTLQQHLVDGRDMIIIRMPKDFPPFPQKLKFREPQREERICLVTTNFQTKSMSSMVSDTSCTFPSGDGIFWKHWIQTKDGQCGSPLVSTRDGFIVGIHSASNFTNTNNYFTSVPKNFMELLTNQEAQQWVSGWRLNADSVLWGGHKVFMVKPEEPFQPVKEATQL

Variants of: B1
Experiment: raw area under fraction-flipped curve 0-4 h after induction (AUC4h, not background-subtracted), DNA-recorder readout of cleavage of the substrate (dimensionless); higher = more cleavage of the substrate by the protease variant
Conditions: temperature: 34 °C; time window: 0-4 h after rhamnose induction
Experimental: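 In vivo DNA recorder in E. coli TOP10(DE3) ΔrhaA at 34 °C. Each TEVp single-site mutant (parent TEVp 0) is paired with a single-site variant of the 7-mer TEVs (canonical ENLYFQ|S). The substrate sits between flexible linkers in a Bxb1-sfGFP-TEVs-SsrA fusion, so cleavage stabilises Bxb1 and speeds flipping of a recombination array, read by NGS. The value is the raw area under the fraction-flipped curve over 0-4 h after rhamnose induction (AUC4h), with ≥20 reads per time point. It is not background-subtracted; inactive controls average about 0.047.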
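Note: Bxb1 expression induced with 0.2% (w/v) L-rhamnose at OD600 near 0.5, cultures sampled hourly, flipped fraction per protease–substrate barcode pair counted by paired-end Illumina sequencing.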

Variant	area with substrate ENLYFQA	area with substrate ENLYFQG	area with substrate ENLYFQI	area with substrate ENLYFQK	area with substrate ENLYFQL	area with substrate ENLYFQM	area with substrate ENLYFQN	area with substrate ENLYFQQ	area with substrate ENLYFQR	area with substrate ENLYFQS	area with substrate ENLYFQT	area with substrate ENLYFQV	area with substrate ENLYFQW	area with substrate ENLYFQY	area with substrate ENLYFQC	area with substrate ENLYFQH	area with substrate ENLYFQP	area with substrate ENLYFQD	area with substrate ENLYFQE	area with substrate ENLYFQF
MGESLFKGPRDYNPISSSICHLTNESDGHTTSLYGIGFGPFIITNKHLFRRNNGTLVVQSLHGVFKVKDTTTLQQHLVDGRDMIIIRMPKDFPPFPQKLKFREPQREERICLVTTNFQTKSMSSMVSDTSCTFPSGDGIFWKHWIQTKDGQPGSPLVSTRDGFIVGIHSASNFTNTNNYFTSVPKNFMELLTNQEAQQWVSGWRLNADSVLWGGHKVFMVKPEEPFQPVKEATQL [C152P]	0.0625	0.0708	0.0551	0.0515	0.0637	0.0569	0.0862	0.06	0.0519	0.0601	0.0469	0.0608	0.0579	0.0592	–	–	–	–	–	–
MGESLFKGPRDYNPISSSICHLTNESDGHTTSLYGIGFGPFIITNKHLFRRNNGTLVVQSLHGVFKVKDTTTLQQHLVDGRDMIIIRMPKDFPPFPQKLKFREPQREERICLVTTNFQTKSMSSMVSDTSCTFPSGDGIFWKHWIQTKDGQCGSPEVSTRDGFIVGIHSASNFTNTNNYFTSVPKNFMELLTNQEAQQWVSGWRLNADSVLWGGHKVFMVKPEEPFQPVKEATQL [L156E]	0.0546	0.0574	0.0539	0.0513	0.0488	0.0553	0.0472	–	0.0571	0.0532	0.0465	0.0495	0.053	0.0444	0.057	0.0568	0.0549	–	–	–
MGESLFKGPRDYNPISSSICHLTNESDGHTTSLYGIGFGPFIITNKHLFRRNNGTLVVQSLHGVFKVKDTTTLQQHLVDGRDMIIIRMPKDFPPFPQKLKFREPQREERICLVTTNFQTKSMSSMVSDTSCTFPSGDGIFWKHWIQTKYGQCGSPLVSTRDGFIVGIHSASNFTNTNNYFTSVPKNFMELLTNQEAQQWVSGWRLNADSVLWGGHKVFMVKPEEPFQPVKEATQL [D149Y]	0.0788	0.0763	0.0604	0.06	0.0603	0.0702	0.0571	–	0.0477	0.0762	0.0928	0.057	0.0615	0.0558	0.096	0.0754	0.0632	0.0588	0.0573	–
MGESLFKGPRDYNPISSSICHLTNESDGHTTSLYGIGFGPFIITNKHLFRRNNGTLVVQSLHGVFKVKDTTTLQQHLVDGRDMIIIRMPKDFPPFPQKLKFREPQREERICLVTTNFQTKSMSSMVSDTSCTFPSGDGIFWKHWIMTKDGQCGSPLVSTRDGFIVGIHSASNFTNTNNYFTSVPKNFMELLTNQEAQQWVSGWRLNADSVLWGGHKVFMVKPEEPFQPVKEATQL [Q146M]	0.146	0.0988	0.0625	0.0537	0.063	0.0905	0.0791	–	–	0.135	–	–	–	–	0.131	–	–	–	–	–
MGESLFKGPRDYNPISSSICHLTNESDGHTTSLYGIGFGPFIITNKHLFRRNNGTLVVQSLHGVFKVKDTTTLQQHLVDGRDMIIIRMPKDFPPFPQKLKFREPQREERICLVTTNFQTKSMSSMVSDTSCTFPSGDGIFWKHWIQTKDGMCGSPLVSTRDGFIVGIHSASNFTNTNNYFTSVPKNFMELLTNQEAQQWVSGWRLNADSVLWGGHKVFMVKPEEPFQPVKEATQL [Q151M]	0.116	0.104	0.069	–	0.0501	–	0.078	–	0.0629	0.109	–	0.0636	–	0.094	–	0.0762	0.0772	0.0832	0.0662	–
MGESLFKGPRDYNPISSSICHLTNESDGHTTSLYGIGFGPFIITNKHLFRRNNGTLVVQSLHGVFKVKDTTTLQQHLVDGRDMIIIRMPKDFPPFPQKLKFREPQREERICLVTTNFQTKSMSSMVSDTSCTFPSGDGIFWKHWIQTKDGECGSPLVSTRDGFIVGIHSASNFTNTNNYFTSVPKNFMELLTNQEAQQWVSGWRLNADSVLWGGHKVFMVKPEEPFQPVKEATQL [Q151E]	0.142	0.0839	0.0627	0.0603	0.0579	0.075	0.0839	0.0657	0.0611	0.102	0.0536	–	0.0667	0.0685	0.128	0.0769	0.0566	0.062	–	0.065
MGESLFKGPRDYNPISSSICHLTNESDGHTTSLYGIGFGPFIITNKHLFRRNNGTLVVQSLHGVFKVKDTTTLQQHLVDGRDMIIIRMPKDFPPFPQKLKFREPQREERICLVTTNFQTKSMSSMVSDTSCTFPSGDGIFWKHWIQTKDGQCGSPLLSTRDGFIVGIHSASNFTNTNNYFTSVPKNFMELLTNQEAQQWVSGWRLNADSVLWGGHKVFMVKPEEPFQPVKEATQL [V157L]	0.073	0.0842	0.0492	0.0789	0.0548	0.0895	0.104	0.0588	0.0565	0.0948	–	0.0581	0.071	0.0407	0.106	0.0769	–	0.0739	–	–
MGESLFKGPRDYNPISSSICHLTNESDGHTTSLYGIGFGPFIITNKHLFRRNNGTLVVQSLHGVFKVKDTTTLQQHLVDGRDMIIIRMPKDFPPFPQKLKFREPQREERICLVTTNFQTKSMSSMVSDTSCTFPSGDGIFWKHWIQTKDGQCGSPLDSTRDGFIVGIHSASNFTNTNNYFTSVPKNFMELLTNQEAQQWVSGWRLNADSVLWGGHKVFMVKPEEPFQPVKEATQL [V157D]	0.0452	0.0447	0.0602	0.028	0.0468	0.0382	–	–	0.142	0.0482	0.0586	–	0.0499	0.0537	–	0.0439	–	0.0588	–	–
MGESLFKGPRDYNPISSSICHLTNESDGHTTSLYGIGFGPFIITNKHLFRRNNGTLVVQSLHGVFKVKDTTTLQQHLVDGRDMIIIRMPKDFPPFPQKLKFREPQREERICLVTTNFQTKSMSSMVSDTSCTFPSGDGIFWKHWIQTKDGQCGSKLVSTRDGFIVGIHSASNFTNTNNYFTSVPKNFMELLTNQEAQQWVSGWRLNADSVLWGGHKVFMVKPEEPFQPVKEATQL [P155K]	0.0493	0.0513	0.0496	0.0524	0.0578	0.0525	0.0568	0.0497	0.0559	0.0536	0.0507	0.069	–	0.0277	0.0587	0.0632	0.0563	0.0586	0.0572	–
MGESLFKGPRDYNPISSSICHLTNESDGHTTSLYGIGFGPFIITNKHLFRRNNGTLVVQSLHGVFKVKDTTTLQQHLVDGRDMIIIRMPKDFPPFPQKLKFREPQREERICLVTTNFQTKSMSSMVSDTSCTFPSGDGIFWKHWIQTKDVQCGSPLVSTRDGFIVGIHSASNFTNTNNYFTSVPKNFMELLTNQEAQQWVSGWRLNADSVLWGGHKVFMVKPEEPFQPVKEATQL [G150V]	0.0528	0.0516	0.0575	0.058	0.058	0.0583	0.0572	0.0502	0.0622	0.0608	0.0641	0.0528	–	0.0652	0.0549	0.0582	0.0554	0.0544	–	0.0696
MGESLFKGPRDYNPISSSICHLTNESDGHTTSLYGIGFGPFIITNKHLFRRNNGTLVVQSLHGVFKVKDTTTLQQHLVDGRDMIIIRMPKDFPPFPQKLKFREPQREERICLVTTNFQTKSMSSMVSDTSCTFPSGDGIFWKHWIQTKDHQCGSPLVSTRDGFIVGIHSASNFTNTNNYFTSVPKNFMELLTNQEAQQWVSGWRLNADSVLWGGHKVFMVKPEEPFQPVKEATQL [G150H]	0.0883	0.0577	0.059	0.0639	0.0672	0.073	0.0579	0.0769	0.0662	0.0566	0.054	0.0603	–	0.0448	0.0654	0.0584	0.0622	–	–	–
MGESLFKGPRDYNPISSSICHLTNESDGHTTSLYGIGFGPFIITNKHLFRRNNGTLVVQSLHGVFKVKDTTTLQQHLVDGRDMIIIRMPKDFPPFPQKLKFREPQREERICLVTTNFQTKSMSSMVSDTSCTFPSGDGIFWKHWIQTQDGQCGSPLVSTRDGFIVGIHSASNFTNTNNYFTSVPKNFMELLTNQEAQQWVSGWRLNADSVLWGGHKVFMVKPEEPFQPVKEATQL [K148Q]	0.0955	0.0665	–	–	0.0596	0.0872	0.0754	–	0.0691	0.103	0.0744	–	0.0751	–	–	–	–	0.0575	–	0.071
MGESLFKGPRDYNPISSSICHLTNESDGHTTSLYGIGFGPFIITNKHLFRRNNGTLVVQSLHGVFKVKDTTTLQQHLVDGRDMIIIRMPKDFPPFPQKLKFREPQREERICLVTTNFQTKSMSSMVSDTSCTFPSGDGIFWKHWIQTEDGQCGSPLVSTRDGFIVGIHSASNFTNTNNYFTSVPKNFMELLTNQEAQQWVSGWRLNADSVLWGGHKVFMVKPEEPFQPVKEATQL [K148E]	0.0675	–	0.0683	0.0804	0.0702	0.0929	0.0954	0.0711	0.0536	0.0918	0.0596	0.0553	0.0738	–	0.106	0.0662	0.0791	–	0.0507	–
MGESLFKGPRDYNPISSSICHLTNESDGHTTSLYGIGFGPFIITNKHLFRRNNGTLVVQSLHGVFKVKDTTTLQQHLVDGRDMIIIRMPKDFPPFPQKLKFREPQREERICLVTTNFQTKSMSSMVSDTSCTFPSGDGIFWKHWIQTRDGQCGSPLVSTRDGFIVGIHSASNFTNTNNYFTSVPKNFMELLTNQEAQQWVSGWRLNADSVLWGGHKVFMVKPEEPFQPVKEATQL [K148R]	0.0838	–	0.0569	0.0634	0.0649	0.0884	0.0968	–	0.0653	0.108	0.0759	–	0.0656	–	0.1	–	–	0.0738	–	–
MGESLFKGPRDYNPISSSICHLTNESDGHTTSLYGIGFGPFIITNKHLFRRNNGTLVVQSLHGVFKVKDTTTLQQHLVDGRDMIIIRMPKDFPPFPQKLKFREPQREERICLVTTNFQTKSMSSMVSDTSCTFPSGDGIFWKHWIQTKDGQCGSPLVSTRAGFIVGIHSASNFTNTNNYFTSVPKNFMELLTNQEAQQWVSGWRLNADSVLWGGHKVFMVKPEEPFQPVKEATQL [D161A]	0.0556	–	0.0581	0.0613	0.0491	–	0.0364	0.0439	0.0542	0.064	0.0596	0.0575	0.0083	0.0674	0.0649	0.0544	0.0454	0.0749	–	0.064
MGESLFKGPRDYNPISSSICHLTNESDGHTTSLYGIGFGPFIITNKHLFRRNNGTLVVQSLHGVFKVKDTTTLQQHLVDGRDMIIIRMPKDFPPFPQKLKFREPQREERICLVTTNFQTKSMSSMVSDTSCTFPSGDGIFWKHWIQTKDGQCGSPLVSTRWGFIVGIHSASNFTNTNNYFTSVPKNFMELLTNQEAQQWVSGWRLNADSVLWGGHKVFMVKPEEPFQPVKEATQL [D161W]	0.078	0.0547	0.0477	0.0529	0.0485	0.0558	0.0436	–	0.0415	0.0585	0.0475	–	0.0503	0.0738	0.059	–	0.0448	0.048	0.0554	0.0444
MGESLFKGPRDYNPISSSICHLTNESDGHTTSLYGIGFGPFIITNKHLFRRNNGTLVVQSLHGVFKVKDTTTLQQHLVDGRDMIIIRMPKDFPPFPQKLKFREPQREERICLVTTNFQTKSMSSMVSDTSCTFPSGDGIFWKHWIQTKDGQCGSPLVSTRDPFIVGIHSASNFTNTNNYFTSVPKNFMELLTNQEAQQWVSGWRLNADSVLWGGHKVFMVKPEEPFQPVKEATQL [G162P]	0.055	0.0594	–	0.0459	–	0.0505	0.0539	–	0.0532	0.0656	0.0569	–	0.0496	–	–	0.064	–	–	–	–
